These are literature values, as cited in article PMC3930637.

Broadly, the Kd is the equilibrium constant for the complex coming apart.

The target in the data set is HIV-1 capsid (CA) CA (Human immunodeficiency virus 1) (UniProt O93182). As to the kind of experiment: ITC. In general terms: Isothermal titration calorimetry measures the heat released or taken up as one component is titrated into another.

Certain results were filed several times, with different values. This is not the full list of results. There may be further records. Results that share an entry seem to repeat one measurement on other runs, samples or individuals.

UniProt O93182, sequence (O93182 133-363): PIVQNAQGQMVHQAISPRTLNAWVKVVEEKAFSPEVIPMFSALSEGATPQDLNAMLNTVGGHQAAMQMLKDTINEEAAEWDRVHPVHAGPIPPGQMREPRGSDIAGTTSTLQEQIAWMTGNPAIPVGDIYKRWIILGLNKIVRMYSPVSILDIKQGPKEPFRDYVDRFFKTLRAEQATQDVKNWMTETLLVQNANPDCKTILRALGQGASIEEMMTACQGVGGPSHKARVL

In the case of “Nup358 cyclophilin homology domain (from UniProt P49792)”, the Kd is 16 µM and > 200 µM.
